Assay results taken from patent US10544092B2 (priority 2015, dated 2020).

Key:
[1] = test system: bacterial leaf spot of cucumber; settings: in vivo
[2] = test system: bacterial leaf streak of rice; type: in vivo, Xanthomonas oryzae pv. oryzicola; settings: dosage 600 mg/L, 10 days
bacterial blight of rice = type: in vivo; settings: dosage 600 mg/L, 10 days
[3] = test system: bacterial leaf spot of tomato; type: in vivo; settings: dosage 400 mg/L, 10 days

N#CC(C#N)=NOCc1cccc(Br)c1 [Compound 9]
100%: control against bacterial leaf spot of cucumber [1] | control against bacterial leaf streak of rice [2] | control against bacterial blight of rice (bacterial blight of rice) | control against bacterial leaf spot of tomato [3]

N#CC(C#N)=NOCc1ccc(Cl)c(Cl)c1 [Compound 59]
100%: control against bacterial leaf spot of cucumber [1] | control against bacterial leaf streak of rice [2] | control against bacterial blight of rice (bacterial blight of rice) | control against bacterial leaf spot of tomato [3]

N#CC(C#N)=NOCc1cccc(C#N)c1 [Compound 36]
100%: control against bacterial leaf spot of tomato [3]

N#CC(C#N)=NOCc1ccc(F)c(F)c1 [Compound 83]
100%: control against bacterial leaf spot of cucumber [1] | control against bacterial leaf streak of rice [2] | control against bacterial blight of rice (bacterial blight of rice) | control against bacterial leaf spot of tomato [3]

N#CC(C#N)=NOCc1ccc([N+](=O)[O-])cc1 [Compound 34]
100%: control against bacterial leaf spot of cucumber [1] | control against bacterial leaf streak of rice [2] | control against bacterial blight of rice (bacterial blight of rice) | control against bacterial leaf spot of tomato [3]

N#CC(C#N)=NOCc1ccc(C#N)cc1 [Compound 37]
100%: control against bacterial leaf spot of cucumber [1] | control against bacterial leaf streak of rice [2] | control against bacterial blight of rice (bacterial blight of rice) | control against bacterial leaf spot of tomato [3]

COc1ccc(CON=C(C#N)C#N)cc1 [Compound 19]
100%: control against bacterial leaf spot of cucumber [1] | control against bacterial leaf streak of rice [2] | control against bacterial blight of rice (bacterial blight of rice) | control against bacterial leaf spot of tomato [3]
